The source of these data is PubChem BioAssay (NCI).

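Tested at 5 concentrations; 48 h exposure; 96-well plates; endpoints linearly interpolated, else capped at highest concentration. GI50 marks 50% less growth. TGI is the concentration that stops growth completely.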

This test has as its system NCI-H322M lung. The test can be described thus: DTP human tumour cell line panel, 48 h.
The term GI50 denotes the concentration at which growth is held to half of that of the control. Broadly, the TGI is the concentration giving total growth inhibition. A high value points to less potent growth arrest. As for `O=C1C(OCCOc2ccccc2)=C(OCCOc2ccccc2)C(=O)c2ccccc21`, the GI50 was 21.1 µM and the concentration for total growth inhibition (TGI) is > 100 µM.

Consider `CCc1c(C)nc2sc3c(N)ncnc3c2c1C`, for which the GI50 is > 25 µM and the TGI was > 25 µM.

Turning to `COC(=O)C1CCC(=O)N1C(c1ccc2c(c1)OCO2)c1cc(OC)c(OC)c(OC)c1` (centres undefined), the concentration for total growth inhibition (TGI) was > 100 µM.

`CCCc1[nH]c2ccccc2c1-c1c(CCC)[nH]c2ccccc12` had a TGI of 27.9 µM.

Regarding `COc1cc(Nc2nc3cc(C(F)(F)F)ccc3n3cccc23)cc(OC)c1OC`, the total growth inhibition concentration (TGI) was > 100 µM.

For the compound `N[C@H](COCc1ccccc1)c1ccccc1`, the TGI turned out to be 81 µM.

For the compound `COc1cc(O)c2c(=O)c(OC)c(-c3ccc(OC)c(OC)c3)oc2c1`, the TGI was > 100 µM.

The compound `CC1=NN(c2ccccc2)C(=O)/C1=C\c1ccc([N+](=O)[O-])cc1` yielded a total growth inhibition concentration (TGI) of 73.3 µM.

In the case of `O=c1[nH]c2nc3ccccc3c(=O)n2/c1=C/c1ccco1`, the concentration for total growth inhibition (TGI) is > 100 µM.

Regarding `CC1=C(CC2C(=O)N(c3ccccc3)S(=O)(=O)NC2C)C(=O)N(c2ccccc2)S(=O)(=O)N1C` (centres undefined), the TGI is > 100 µM.

Turning to `COc1ccc(-c2[nH]c3ccccc3c2CCNS(=O)(=O)c2ccc(C)cc2)cc1`, the TGI is > 10 µM.

Regarding `Cc1cc2c(cc1C)[n+](=O)c(C(=O)c1ccccc1)c(C(F)(F)F)n2[O-]`, the TGI stood at 49.7 µM.

As to `Cc1ccncc1C(N)=O`, the GI50 is > 100 µM and the TGI is > 100 µM.

Turning to `CN(C)CCNC(=O)c1cccc2c(NC(CCC(N)=O)C(=O)O)c3ccccc3nc12` (centres undefined), the TGI was > 100 µM.

In the case of `O=NN(CCF)C(=O)NC1CCSCC1`, the concentration for total growth inhibition (TGI) was > 100 µM.

As for `COc1ccc(Nc2ccc([N+](=O)[O-])cc2[N+](=O)[O-])cc1CN(CCCl)CCCl`, the GI50 was 2.6 µM and the concentration for total growth inhibition (TGI) was determined as 11.8 µM.

In the case of `COc1cc(C(=O)c2cc(C)c3[nH]c4ccc(O)cc4c3c2C)cc(OC)c1OC`, the concentration for 50% growth inhibition (GI50) was 0.0538 µM and the TGI was > 100 µM.

On to `C[N+](C)(C)c1ncnc2c1ncn2C1CCCO1` (centres undefined), for which the TGI was > 100 µM.

Regarding `CC(C)(C)OC(=O)NCCCCC(N)NC(=O)c1ccccc1` (centres undefined), the concentration for total growth inhibition (TGI) was > 100 µM.

Consider `COC(=O)Cc1c(-c2c(CC(=O)OC)c3ccccc3n2C2OC(COC(C)=O)C(OC(C)=O)C(OC(C)=O)C2OC(C)=O)[nH]c2ccccc12` (centres undefined), for which the concentration for total growth inhibition (TGI) was > 100 µM.

With `N#CCN1C(=O)c2cc([N+](=O)[O-])cc3cc([N+](=O)[O-])cc(c23)C1=O`, the total growth inhibition concentration (TGI) is > 93.3 µM.

Turning to `CCCCNc1nc(NC2OCC(OC(C)=O)C(OC(C)=O)C2OC(C)=O)c(N=O)c(=O)n1C` (centres undefined), the TGI is > 10 µM.

In the case of `N#Cc1nc(C#N)n(S(=O)(=O)c2ccccc2)c1NS(=O)(=O)c1ccccc1`, the TGI was > 100 µM.

Regarding `COc1cccc(C2c3cc4c(cc3OC3COC(=O)C32)OCO4)c1OC` (centres undefined), the TGI is > 100 µM.

`CC(=O)OCC1OC(OCCCOP(=S)(OCCC#N)OCC2OC(n3ccc(N)nc3=O)C(OC(=O)c3ccccc3)C2OC(=O)c2ccccc2)C(OC(C)=O)C(OC(C)=O)C1OC(C)=O` (centres undefined): the TGI is > 100 µM.

Turning to `Cc1[nH]c(-c2cc(N)ccc2Cl)c2c1C(=O)CCCC2`, the GI50 was 2.95 µM and the total growth inhibition concentration (TGI) was > 100 µM.

Turning to `NC1=NC(=O)C(CC(=O)Nc2ccc(Cl)cc2Cl)S1` (centres undefined), the TGI is > 100 µM.

As for `CC1c2ccccc2CCN1c1ccc(CO)c(Cl)c1` (centres undefined), the GI50 was 2.6 µM and the TGI worked out at 23 µM.

Take `NNc1nnc(-c2nnc(NN)o2)o1`: the TGI is > 10 µM.

Regarding `CNNC(=NS(=O)(=O)c1cc(C#N)c(NNC)cc1S)NNC`, the TGI was > 10 µM.

Take `Cc1cc(=O)c2c(O)cc3c(c2o1)CC=C(COC1OC(COC2OC(CO)C(O)C(O)C2O)C(O)C(O)C1O)CO3` (centres undefined): the total growth inhibition concentration (TGI) was > 100 µM.

Take `O=Nc1c(-c2c(O)[nH]c3ncccc23)[nH]c2ccccc12`: the GI50 is 2.94 µM and the TGI is > 100 µM.

For the compound `c1ccc2c(c1)CCc1c-2n[nH]c1-c1[nH]nc2c1CCc1ccccc1-2`, the total growth inhibition concentration (TGI) is > 100 µM.

In turn, `C=C(C)[C@@H]1CC[C@]2(C(=O)OC)CC[C@]3(C)[C@H](CC[C@@H]4[C@@]5(C)CC[C@H](O)C(C)(C)[C@@H]5CC[C@]43C)[C@@H]12` registered a total growth inhibition concentration (TGI) of 35.2 µM.

On to `CN1CCN(CCCCCN=c2cc3c(=O)n(CCCCCN4CCN(C)CC4)c(=O)c4c(NCCCCCN5CCN(C)CC5)cc5c(O)n(CCCCCN6CCN(C)CC6)c(=O)c2c5c4-3)CC1`, for which the GI50 is 1.98 µM and the TGI was found to be 5.13 µM.

In the case of `O=c1c2cc(F)ccc2sc2c(NCCCNCCO)nc3ccccc3c12`, the GI50 is 1.63 µM and the total growth inhibition concentration (TGI) came to 3.05 µM.

As for `O=[N+]([O-])c1ccc(C(O)(C#CCN2CCCC2)c2ccccc2)cc1` (centres undefined), the TGI was > 100 µM.

Consider `CC1C=CC(OC(=O)C(C)(O)CCC(O)(C(=O)OC2CC(O)C(C(C)C)CC2(C)O)C(C)C)(C(C)C)CC1` (centres undefined), for which the GI50 was 0.848 µM and the TGI is 2.28 µM.

On to `COc1ccc2c3c1O[C@H](c1ccc(O)cc1)[C@H]3[N+](C)(C)CC2`, for which the TGI was > 100 µM.

Regarding `Cc1cccc(NC(=O)/C(=N\N)C(c2cnc3ccc([N+](=O)[O-])cc3n2)[N+](=O)[O-])c1C` (centres undefined), the total growth inhibition concentration (TGI) was > 100 µM.

Consider `COc1cc(/C=C/c2ccc3c(Br)cc(Br)c(O)c3n2)ccc1O`, for which the GI50 was 2.28 µM and the TGI amounted to 17.6 µM.

Take `COc1cccc(Oc2ccccc2NC(=O)CNC(=O)c2cccc3ccccc23)c1`: the GI50 is 1.27 µM and the TGI is > 25 µM.

On to `O=C1c2c(Br)sc(Br)c2[C@@H](NC(=O)C(F)(F)F)C1Br` (some centres undefined), for which the concentration for total growth inhibition (TGI) came out at 15.3 µM. This lies in the double-digit micromolar range.

Take `O=C(O)CCNS(=O)(=O)c1ccc([N+](=O)[O-])cc1`: the TGI is > 100 µM.

With `CN1CCN(c2ccc3c(c2)NCC(=O)N3)CC1`, the TGI was > 100 µM.

As for `COc1cc(-c2nn(-c3cccc(NC(=O)CCN4CCN(Cc5ccccc5)CC4)c3)cc2-c2ccncc2)ccc1Cl`, the GI50 is 2.49 µM and the total growth inhibition concentration (TGI) was 14.7 µM.

For the compound `O=C(c1ccccc1)c1c(CC(O)c2ccncc2)n(C(=O)c2ccccc2)c2ccccc12` (centres undefined), the concentration for total growth inhibition (TGI) is > 100 µM.

For `FC(F)(F)c1cccc(-c2nn3ncccc3c2-c2ccnc(Nc3ccc4c(c3)OCCO4)n2)c1`, the GI50 was > 25 µM and the TGI is > 25 µM.

With `C=CCC1(C)CCCN(Cc2ccccc2)C1=O` (centres undefined), the TGI is > 10 µM.

In turn, `CCc1ccc2c(c1)N(CC(C)CN(C)C)c1ccccc1S2` (centres undefined) showed a TGI of 17.2 µM.

Regarding `N#CNc1nc(N)c(-c2ccc(Cl)cc2)c(C(=O)Nc2nccs2)n1`, the concentration for total growth inhibition (TGI) was > 100 µM.

`Oc1cc(-n2cccn2)c(O)cc1-n1cccn1`: the TGI was > 87.3 µM.

As for `Cc1[nH]nc(-c2ccon2)c1N=O`, the concentration for total growth inhibition (TGI) was > 100 µM.

Take `O=C(O)c1ccccc1NC(=S)c1ccccc1`: the TGI is > 100 µM.

`CC(C)(CCC(C)(C)N1OC1c1ccccc1)N1OC1c1ccccc1` (centres undefined): the TGI was > 100 µM.

For the compound `N/C(=N\OC(=O)c1ccccc1)C(Cc1ccccc1)C(=O)NOC(=O)c1ccccc1` (centres undefined), the GI50 was 13.1 µM and the TGI came out at 88.5 µM.

In the case of `O=c1[nH]nc(-c2ccccc2)n1O`, the total growth inhibition concentration (TGI) was > 100 µM.

For the compound `Fc1ccc(/C=N/n2c(-c3ccc(F)c(Cl)c3)n[nH]c2=S)cc1`, the GI50 is 20.8 µM and the TGI worked out at 43.2 µM.

As for `O=C(CN1N=C(c2ccc(F)cc2)CCC1=O)Nc1nc2ccccc2s1`, the GI50 was > 100 µM and the TGI was > 100 µM.

Consider `O=C(c1ccco1)N(C(=O)N1CCN(c2ccccc2)CC1)S(=O)(=O)c1ccccc1`, for which the TGI is > 100 µM.

For `O=c1[nH]c(Nc2nc3ccccc3[nH]2)nc(O)c1Cc1ccccc1`, the TGI was > 100 µM.

As for `CC(CO)(Nc1ccc([N+](=O)[O-])cc1[N+](=O)[O-])C(=O)O` (centres undefined), the total growth inhibition concentration (TGI) was > 100 µM.

Consider `CN=C1OC2(c3ccccc3)C3=C(OC(=NC)N2C)C(=O)OC3(c2ccccc2)N1C` (centres undefined), for which the total growth inhibition concentration (TGI) is > 100 µM.

As for `COC(=O)C(=O)Cc1nc2ccccc2o1`, the total growth inhibition concentration (TGI) is > 100 µM.

For the compound `c1cc(-c2cn3c(n2)SCC3)ccn1`, the TGI is > 100 µM.

As to `CCN(CCN(CC)C(=O)Nc1ccccc1)C(=O)Nc1ccccc1`, the total growth inhibition concentration (TGI) is > 100 µM.

For `COc1ccc(-c2cc(=O)c3c(O)cccc3o2)c(OC)c1OC`, the TGI is > 100 µM.

Consider `CC(C)(C)NC(=O)CCC1C(C(=O)NC(C)(C)C)C2(Cl)C(Cl)=C(Cl)C1(Cl)C2(Cl)Cl` (centres undefined), for which the concentration for total growth inhibition (TGI) was > 100 µM.

For `CN(CCCNC(=O)c1cc(-c2ccccc2)nc2ccccc12)CCCNC(=O)c1cc(-c2ccccc2)nc2ccccc12`, the total growth inhibition concentration (TGI) was found to be 18.8 µM.

Take `N#CCCC1(CCC#N)CCCCCCCCC(CCC#N)(CCC#N)C(O)C1O` (centres undefined): the total growth inhibition concentration (TGI) is > 100 µM.

`O=C(O)c1ccccc1N=Nc1c(O)c(S(=O)(=O)O)cc2cc(S(=O)(=O)O)ccc12`: the TGI is > 100 µM.

Regarding `Clc1ccc(C2ON=C(c3ccccc3)N2C23CC4CC(CC(C4)C2)C3)cc1` (centres undefined), the TGI is > 10 µM.

As to `O=C1C=C(O)C(=Cc2c(O)cc(O)cc2O)C(O)=C1`, the TGI was > 100 µM.

On to `CCN1C(=O)N(CC)C2C1NN=c1s/c(=C\c3ccc(F)cc3)c(=O)n12` (centres undefined), for which the GI50 is 0.813 µM and the TGI was > 100 µM.

Take `O=C(/C=C/c1ccc(Cl)c(Cl)c1)c1cccc2ccccc12`: the concentration for total growth inhibition (TGI) is 29.8 µM.

As for `CC1CC(C#N)=C2NCCN2C1=O` (centres undefined), the total growth inhibition concentration (TGI) was > 100 µM.

As to `O=C(NNS(=O)(=O)c1ccc(Cl)cc1Cl)c1cccnc1Nc1ccc(Cl)cc1`, the GI50 was 14.9 µM and the total growth inhibition concentration (TGI) is 40.5 µM.

Regarding `c1ccc(CC2COC(c3cccs3)=N2)cc1` (centres undefined), the total growth inhibition concentration (TGI) is > 100 µM.

Turning to `CCOC(=O)Cn1nnc2ccc(Nc3nc4ccccc4nc3-c3ccccc3)cc21`, the TGI was > 100 µM.

For the compound `COc1ccc(C2=NOC(N)(c3ccc(OC)cc3)C2)cc1` (centres undefined), the concentration for total growth inhibition (TGI) was > 100 µM.

As to `Cc1ccc(C2C3Cc4ccccc4C3=NN2c2ccc(S(=O)(=O)/N=c3\scc(-c4ccccc4)n3-c3ccccc3)cc2)cc1` (centres undefined), the GI50 was 28 µM and the concentration for total growth inhibition (TGI) came out at 93.2 µM.

On to `O=C1OC(=O)c2c1c(-c1ccccc1)nc1ccccc21`, for which the total growth inhibition concentration (TGI) is > 100 µM.

Regarding `Cc1cc(C)c(C2CNCc3cc4c(cc32)CNCC4c2c(C)cc(C)cc2C)c(C)c1` (centres undefined), the GI50 was 4.88 µg/mL and the TGI amounted to 16.4 µg/mL.

`C/C(=N\O)c1cccc(Nc2cc(-n3ccnc3)c3ccccc3n2)c1`: the GI50 was 18.6 µM and the TGI came out at 40.1 µM.

The compound `c1ccc(N=C2c3ccsc3C(=Nc3ccccc3)c3ccsc32)cc1` gave a concentration for total growth inhibition (TGI) of 6.22 µM.

In turn, `C=CCOc1ccc(C2C(C(=O)OC)C(=O)CC(O)(c3ccccc3)C2C(=O)OC)cc1OC` (centres undefined) registered a TGI of 88.8 µM.
